According to patent US9611256B2, “Alkyne-, azide- and triazole-containing flavonoids as modulators for multidrug resistance in cancers” (The Hong Kong Polytechnic University, priority 2012, dated 2017):
Some results were stated once for a whole list of compounds, not compound by compound.

These compounds were tested against T1, BCRP (Homo sapiens, UniProt Q9UNQ0) (assay: Reversal of BCRP-mediated topotecan resistance in MCF7-MX100 cells (cell proliferation assay)). Conditions: triazole dimers at 1.0 μM.
T1 sequence (Q9UNQ0 1-655): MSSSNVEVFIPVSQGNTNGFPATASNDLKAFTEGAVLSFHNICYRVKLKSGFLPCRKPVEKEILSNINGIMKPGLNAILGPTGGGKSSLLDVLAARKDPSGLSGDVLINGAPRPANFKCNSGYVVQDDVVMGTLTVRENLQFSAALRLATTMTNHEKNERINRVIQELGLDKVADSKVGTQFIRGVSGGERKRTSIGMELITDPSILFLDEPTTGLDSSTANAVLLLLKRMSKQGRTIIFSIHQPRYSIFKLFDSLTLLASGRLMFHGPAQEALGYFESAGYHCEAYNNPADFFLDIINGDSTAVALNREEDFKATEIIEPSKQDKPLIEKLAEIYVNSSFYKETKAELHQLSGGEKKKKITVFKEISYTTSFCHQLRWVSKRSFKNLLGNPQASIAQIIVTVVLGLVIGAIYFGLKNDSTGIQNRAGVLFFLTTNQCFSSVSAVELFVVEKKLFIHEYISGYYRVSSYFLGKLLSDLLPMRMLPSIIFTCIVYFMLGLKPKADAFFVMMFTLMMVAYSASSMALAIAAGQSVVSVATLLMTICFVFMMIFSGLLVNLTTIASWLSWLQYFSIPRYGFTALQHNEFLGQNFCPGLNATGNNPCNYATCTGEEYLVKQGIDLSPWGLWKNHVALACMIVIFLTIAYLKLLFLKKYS

Row | SMILES | % of reversion of sensitivity of MCF7-MX100 towards topotecan
1 | O=c1cc(-c2ccccc2)oc2cc(OCCCCc3cn(CCOCCOc4ccc(-c5oc6ccccc6c(=O)c5OCc5ccccc5)cc4)nn3)ccc12 [Ac12Az10, 3-(Benzyloxy)-2-(4-(2-(2-(4-(4-((4-oxo-2-phenyl-4H-chromen-7-yl)oxy)butyl)-1H-1,2,3-triazol-1-yl)ethoxy)ethoxy)phenyl)-4H-chromen-4-one] | at least 53.3%
2 | O=c1cc(-c2ccccc2)oc2cc(OCCOCc3cn(CCOCCOc4ccc(-c5oc6ccccc6c(=O)c5OCc5ccccc5)cc4)nn3)ccc12 [Ac13Az10, 3-(Benzyloxy)-2-(4-(2-(2-(4-((2-((4-oxo-2-phenyl-4H-chromen-7-yl)oxy)ethoxy)methyl)-1H-1,2,3-triazol-1-yl)ethoxy)ethoxy)phenyl)-4H-chromen-4-one] | at least 53.3%
3 | COC(=O)c1cccc(COc2c(-c3ccc(OCCOCCn4cc(CN(Cc5ccccc5)Cc5cn(CCOCCOc6ccc(-c7oc8ccccc8c(=O)c7OCc7cccc(C(=O)OC)c7)cc6)nn5)nn4)cc3)oc3ccccc3c2=O)c1 [Ac15Az8, Dimethyl 3,3′-(((2,2′-((((((4,4′-((benzylazanediyl)bis(methylene))bis(1H-1,2,3-triazole-4,1-diyl))bis(ethane-2,1-diyl))bis(oxy))bis(ethane-2,1-diyl))bis(oxy))bis(4,1-phenylene))bis(4-oxo-4H-chromene-3,2-diyl))bis(oxy))bis(methylene))dibenzoate] | at least 53.3%
4 | COC(=O)c1cccc(COc2c(-c3ccc(OCCOCCOCCn4cc(CN(Cc5ccccc5)Cc5cn(CCOCCOCCOc6ccc(-c7oc8ccccc8c(=O)c7OCc7cccc(C(=O)OC)c7)cc6)nn5)nn4)cc3)oc3ccccc3c2=O)c1 [Ac15Az9, Dimethyl 3,3′-(((2,2′-((((((((4,4′-((benzylazanediyl)bis(methylene))bis(1H-1,2,3-triazole-4,1-diyl))bis(ethane-2,1-diyl))bis(oxy))bis(ethane-2,1-diyl))bis(oxy))bis(ethane-2,1-diyl))bis(oxy))bis(4,1-phenylene))bis(4-oxo-4H-chromene-3,2-diyl))bis(oxy))bis(methylene))dibenzoate] | at least 53.3%

Each compound was assayed against MRP1 (Homo sapiens, UniProt P33527) (assay: Reversal of MRP1-mediated DOX resistance in 2008/MRP1 cells (cell proliferation assay)). Conditions: triazole dimers at 1.0 μM.
MRP1, sequence (P33527 whole entry): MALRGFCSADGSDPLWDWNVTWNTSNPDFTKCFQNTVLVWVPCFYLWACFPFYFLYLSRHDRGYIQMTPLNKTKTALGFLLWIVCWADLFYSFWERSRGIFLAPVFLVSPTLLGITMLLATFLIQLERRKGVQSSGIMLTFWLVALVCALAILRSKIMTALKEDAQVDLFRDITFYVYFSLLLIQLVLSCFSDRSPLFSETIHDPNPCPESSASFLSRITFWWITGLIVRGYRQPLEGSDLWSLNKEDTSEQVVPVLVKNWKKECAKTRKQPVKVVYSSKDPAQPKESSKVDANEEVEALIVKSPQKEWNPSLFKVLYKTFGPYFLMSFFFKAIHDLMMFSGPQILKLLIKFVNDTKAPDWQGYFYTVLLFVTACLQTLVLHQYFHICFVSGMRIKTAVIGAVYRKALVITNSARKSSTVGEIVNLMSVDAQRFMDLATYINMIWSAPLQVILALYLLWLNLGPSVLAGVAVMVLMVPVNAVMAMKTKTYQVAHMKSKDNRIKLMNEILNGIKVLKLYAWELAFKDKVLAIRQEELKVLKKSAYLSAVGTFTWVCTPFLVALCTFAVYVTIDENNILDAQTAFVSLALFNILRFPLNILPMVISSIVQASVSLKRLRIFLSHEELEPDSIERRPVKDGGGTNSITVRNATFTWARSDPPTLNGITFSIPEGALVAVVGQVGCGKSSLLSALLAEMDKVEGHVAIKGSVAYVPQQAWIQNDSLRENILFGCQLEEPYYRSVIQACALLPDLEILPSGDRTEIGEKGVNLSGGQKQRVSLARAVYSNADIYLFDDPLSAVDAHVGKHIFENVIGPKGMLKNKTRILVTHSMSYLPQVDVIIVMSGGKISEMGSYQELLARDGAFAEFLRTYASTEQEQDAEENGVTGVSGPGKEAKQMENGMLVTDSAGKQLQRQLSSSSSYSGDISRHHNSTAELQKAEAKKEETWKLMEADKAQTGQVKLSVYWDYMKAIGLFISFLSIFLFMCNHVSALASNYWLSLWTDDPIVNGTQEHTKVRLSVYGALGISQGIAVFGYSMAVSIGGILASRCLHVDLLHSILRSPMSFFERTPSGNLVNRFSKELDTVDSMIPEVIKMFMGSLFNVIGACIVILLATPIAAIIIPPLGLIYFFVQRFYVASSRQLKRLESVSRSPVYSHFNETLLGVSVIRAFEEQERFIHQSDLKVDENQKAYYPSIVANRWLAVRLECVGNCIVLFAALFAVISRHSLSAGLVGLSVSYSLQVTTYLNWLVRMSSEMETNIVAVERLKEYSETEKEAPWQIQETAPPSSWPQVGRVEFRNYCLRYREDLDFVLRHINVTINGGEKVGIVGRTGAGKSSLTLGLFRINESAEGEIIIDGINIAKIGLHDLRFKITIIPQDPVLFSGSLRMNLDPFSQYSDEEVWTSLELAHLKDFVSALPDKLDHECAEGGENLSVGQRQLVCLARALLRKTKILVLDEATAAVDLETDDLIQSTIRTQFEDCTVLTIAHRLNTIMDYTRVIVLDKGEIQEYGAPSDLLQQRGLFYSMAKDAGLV

Row | SMILES | % of reversion of sensitivity of 2008/MRP1 towards DOX
5 | COCOc1cc(O)c2c(=O)cc(-c3ccc(OCCCc4cn(CCOCCOc5ccc(-c6cc(=O)c7ccccc7o6)cc5)nn4)cc3)oc2c1 [Ac4(5OH)Az1, 5-Hydroxy-7-(methoxymethoxy)-2-(4-(3-(1-(2-(2-(4-(4-oxo-4H-chromen-2-yl)phenoxy)ethoxy)ethyl)-1H-1,2,3-triazol-4-yl)propoxy)phenyl)-4H-chromen-4-one] | at least 92.3%
6 | Cc1ccc2oc(-c3ccc(OCCCCc4cn(CCOCCOCCOc5ccc(-c6cc(=O)c7ccccc7o6)cc5)nn4)cc3)cc(=O)c2c1 [Ac5Az2, 6-Methyl-2-(4-(4-(1-(2-(2-(2-(4-(4-oxo-4H-chromen-2-yl)phenoxy)ethoxy)ethoxy)ethyl)-1H-1,2,3-triazol-4-yl)butoxy)phenyl)-4H-chromen-4-one] | at least 53.9%
7 | Cc1ccc2oc(-c3ccc(OCCCCc4cn(CCOCCOCCOc5ccc(-c6cc(=O)c7cc(C)ccc7o6)cc5)nn4)cc3)cc(=O)c2c1 [Ac5Az3, 6-Methyl-2-(4-(2-(2-(2-(4-(4-(4-(6-methyl-4-oxo-4H-chromen-2-yl)phenoxy)butyl)-1H-1,2,3-triazol-1-yl)ethoxy)ethoxy)ethoxy)phenyl)-4H-chromen-4-one] | at least 53.9%
8 | COC(=O)c1cccc(COc2c(-c3ccc(OCCOCCOCCn4cc(CCCCOc5ccc(-c6cc(=O)c7cc(C)ccc7o6)cc5)nn4)cc3)oc3ccccc3c2=O)c1 [Ac5Az9, Methyl 3-(((2-(4-(2-(2-(2-(4-(4-(4-(6-methyl-4-oxo-4H-chromen-2-yl)phenoxy)butyl)-1H-1,2,3-triazol-1-yl)ethoxy)ethoxy)ethoxy)phenyl)-4-oxo-4H-chromen-3-yl)oxy)methyl)benzoate] | at least 53.9%
9 | Cc1ccc2oc(-c3ccc(OCCCCc4cn(CCN(CCOc5ccc6c(=O)cc(-c7ccccc7)oc6c5)Cc5ccccc5)nn4)cc3)cc(=O)c2c1 [Ac5Az15, 2-(4-(4-(1-(2-(Benzyl(2-((4-oxo-2-phenyl-4H-chromen-7-yl)oxy)ethyl)amino)ethyl)-1H-1,2,3-triazol-4-yl)butoxy)phenyl)-6-methyl-4H-chromen-4-one] | at least 95.1%
10 | O=c1cc(-c2ccc(OCCOCCn3cc(CN(Cc4ccccc4)Cc4cn(CCOCCOc5ccc(-c6cc(=O)c7ccccc7o6)cc5)nn4)nn3)cc2)oc2ccccc12 [Ac15Az1, 2,2′-((((((4,4′-((Benzylazanediyl)bis(methylene))bis(1H-1,2,3-triazole-4,1-diyl))bis(ethane-2,1-diyl))bis(oxy))bis(ethane-2,1-diyl))bis(oxy))bis(4,1-phenylene))bis(4H-chromen-4-one)] | at least 98.6%
11 | O=c1cc(-c2ccc(OCCOCCOCCn3cc(CN(Cc4ccccc4)Cc4cn(CCOCCOCCOc5ccc(-c6cc(=O)c7ccccc7o6)cc5)nn4)nn3)cc2)oc2ccccc12 [Ac15Az2, 2,2′-((((((((4,4′-((Benzylazanediyl)bis(methylene))bis(1H-1,2,3-triazole-4,1-diyl))bis(ethane-2,1-diyl))bis(oxy))bis(ethane-2,1-diyl))bis(oxy))bis(ethane-2,1-diyl))bis(oxy))bis(4,1-phenylene))bis(4H-chromen-4-one)] | at least 98.6%
